Results reported in the supplement of paper PMC9151546.
Repeats are few or missing, and single values can be far off.

Columns and labels:
CHO-K1 [1] = experiment: relative survival (nuclei to bead ratio vs DMSO control) (% of vehicle control); higher = more surviving cells
Experimental: (§1)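 Flow-cytometric in vitro micronucleus assay (Litron MicroFlow) in CHO-K1 cells in 96-well plates, 19 concentrations (4.5-200 µM, n=1 per concentration). Without S9, cells were exposed for 24 h and sampled at 48 h. With Aroclor 1254-induced rat liver S9, cells were exposed for 3-4 h and sampled at 27-28 h. Read-outs are %MN and %hypodiploid nuclei relative to nucleated events, and relative survival as the nuclei-to-bead ratio versus the 1% DMSO vehicle control (x100).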

CHO-K1 [2] = experiment: micronucleus frequency (% of nucleated events); higher = more micronuclei (genotoxic)
CHO-K1 [3] = experiment: hypodiploid nuclei frequency (% of nucleated events); higher = more hypodiploid events (aneugenic)
Experimental: as §1
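Throughout, for hypodiploid nuclei frequency (% of nucleated events): hypodiploid nuclei gated on a flow cytometer with 488 nm excitation after SYTOX Green staining, cultures at 37 °C, positive controls vinblastine without S9 and cyclophosphamide with S9.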
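Throughout, for micronucleus frequency (% of nucleated events): cells lysed with nuclei stained by SYTOX Green, then micronucleus-gated events counted against nucleated events by flow cytometry with 488 nm excitation.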
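Throughout, for relative survival (nuclei to bead ratio vs DMSO control): Lysed-cell nuclei stained with SYTOX Green and counted against counting beads by flow cytometry at 488 nm excitation, with vinblastine (no S9) and cyclophosphamide (plus S9) as positive controls.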

CCNc1ccccc1 [N-Ethylaniline]
Conditions | hypodiploid nuclei frequency, CHO-K1 [3] [%] | micronucleus frequency, CHO-K1 [2] [%] | relative survival, CHO-K1 [1]
concentration: 4.5 (µM), S9 metabolic activation: with S9, exposure time: 3-4 hours | 0.28 | 1.16 | 94
concentration: 4.5 (µM), S9 metabolic activation: without S9, exposure time: 24 hours | 0.5 | 1.5 | 108
concentration: 5.63 (µM), S9 metabolic activation: with S9, exposure time: 3-4 hours | 0.26 | 0.68 | 96.8
concentration: 5.63 (µM), S9 metabolic activation: without S9, exposure time: 24 hours | 0.32 | 1.6 | 111
concentration: 7.04 (µM), S9 metabolic activation: with S9, exposure time: 3-4 hours | 0.4 | 2.06 | 104
concentration: 7.04 (µM), S9 metabolic activation: without S9, exposure time: 24 hours | 0.32 | 1.36 | 101
concentration: 8.8 (µM), S9 metabolic activation: with S9, exposure time: 3-4 hours | 0.24 | 1.5 | 98.4
concentration: 8.8 (µM), S9 metabolic activation: without S9, exposure time: 24 hours | 0.36 | 1.38 | 113
concentration: 11 (µM), S9 metabolic activation: with S9, exposure time: 3-4 hours | 0.3 | 1.72 | 91.7
concentration: 11 (µM), S9 metabolic activation: without S9, exposure time: 24 hours | 0.42 | 1.26 | 117
concentration: 13.7 (µM), S9 metabolic activation: with S9, exposure time: 3-4 hours | 0.28 | 1.86 | 114
concentration: 13.7 (µM), S9 metabolic activation: without S9, exposure time: 24 hours | 0.42 | 1.84 | 106
concentration: 17.2 (µM), S9 metabolic activation: with S9, exposure time: 3-4 hours | 0.28 | 1.76 | 93
concentration: 17.2 (µM), S9 metabolic activation: without S9, exposure time: 24 hours | 0.3 | 1.72 | 97.5
concentration: 21.5 (µM), S9 metabolic activation: with S9, exposure time: 3-4 hours | 0.34 | 2.26 | 103
concentration: 21.5 (µM), S9 metabolic activation: without S9, exposure time: 24 hours | 0.64 | 1.54 | 91.7
concentration: 26.8 (µM), S9 metabolic activation: with S9, exposure time: 3-4 hours | 0.18 | 0.74 | 74.8
concentration: 26.8 (µM), S9 metabolic activation: without S9, exposure time: 24 hours | 0.66 | 1.14 | 90.2
concentration: 33.6 (µM), S9 metabolic activation: with S9, exposure time: 3-4 hours | 0.06 | 0.9 | 79.2
concentration: 33.6 (µM), S9 metabolic activation: without S9, exposure time: 24 hours | 0.56 | 1.24 | 88.3
concentration: 41.9 (µM), S9 metabolic activation: with S9, exposure time: 3-4 hours | 0.14 | 1.02 | 85.1
concentration: 41.9 (µM), S9 metabolic activation: without S9, exposure time: 24 hours | 0.76 | 2.3 | 99.8
concentration: 52.4 (µM), S9 metabolic activation: with S9, exposure time: 3-4 hours | 0.2 | 1.3 | 96.3
concentration: 52.4 (µM), S9 metabolic activation: without S9, exposure time: 24 hours | 0.86 | 1.5 | 95.1
concentration: 65.5 (µM), S9 metabolic activation: with S9, exposure time: 3-4 hours | 0.34 | 1.98 | 79.8
concentration: 65.5 (µM), S9 metabolic activation: without S9, exposure time: 24 hours | 0.78 | 2 | 88.6
concentration: 81.9 (µM), S9 metabolic activation: with S9, exposure time: 3-4 hours | 0.12 | 1.72 | 84.7
concentration: 81.9 (µM), S9 metabolic activation: without S9, exposure time: 24 hours | 0.68 | 2.06 | 80.2
concentration: 102 (µM), S9 metabolic activation: with S9, exposure time: 3-4 hours | 0.34 | 1.6 | 92.5
concentration: 102 (µM), S9 metabolic activation: without S9, exposure time: 24 hours | 0.76 | 2.8 | 89.2
concentration: 128 (µM), S9 metabolic activation: with S9, exposure time: 3-4 hours | 0.2 | 1.74 | 93.4
concentration: 128 (µM), S9 metabolic activation: without S9, exposure time: 24 hours | 1.04 | 1.94 | 84.3
concentration: 160 (µM), S9 metabolic activation: with S9, exposure time: 3-4 hours | 0.34 | 2.06 | 81.3
concentration: 160 (µM), S9 metabolic activation: without S9, exposure time: 24 hours | 1.04 | 3.7 | 96.1
concentration: 200 (µM), S9 metabolic activation: with S9, exposure time: 3-4 hours | 0.22 | 2.6 | 103
concentration: 200 (µM), S9 metabolic activation: without S9, exposure time: 24 hours | 1.16 | 4.26 | 104
